Test results as given in patent US20240197902A1 (published 2024).
Like-named read-outs stand apart in the source and are kept apart here. Blank lines part the entries; values can stand above or below the binder they belong to.

Columns and labels:
activin A [1] = molecular target: T1, activin A (UniProt P08476 311-426); test: SPR; 37 C
T1 chain: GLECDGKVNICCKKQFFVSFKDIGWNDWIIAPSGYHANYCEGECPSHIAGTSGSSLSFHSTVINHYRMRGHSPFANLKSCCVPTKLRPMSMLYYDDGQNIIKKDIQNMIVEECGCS

activin B = molecular target: T2, activin B (UniProt P09529 293-407); test: SPR; 37 C
T2 chain: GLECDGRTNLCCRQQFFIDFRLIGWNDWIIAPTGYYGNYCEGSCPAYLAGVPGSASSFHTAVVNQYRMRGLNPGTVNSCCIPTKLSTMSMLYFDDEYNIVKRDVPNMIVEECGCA

GDF8 = GDF8 (UniProt O14793 267-375); test: SPR; 37 C
Chain of GDF8 (O14793 267-375): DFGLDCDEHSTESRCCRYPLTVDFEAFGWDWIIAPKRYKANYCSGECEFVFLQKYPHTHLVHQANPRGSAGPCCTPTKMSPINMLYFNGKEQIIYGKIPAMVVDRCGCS

BMP10 [2] = molecular target: T3, BMP10 (UniProt O95393 317-424); test: SPR; 37 C
T3 chain: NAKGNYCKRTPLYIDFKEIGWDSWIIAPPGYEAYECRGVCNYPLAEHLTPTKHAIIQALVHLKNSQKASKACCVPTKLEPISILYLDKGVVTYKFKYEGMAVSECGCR

GDF11 [3] = molecular target: T4, GDF11 (UniProt O95390 299-407); test: SPR; 37 C
T4 chain: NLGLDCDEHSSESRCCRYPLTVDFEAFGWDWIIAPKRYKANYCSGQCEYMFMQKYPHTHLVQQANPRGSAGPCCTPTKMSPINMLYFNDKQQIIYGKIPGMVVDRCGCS

activin A [4] = molecular target: T1, activin A; test: SPR; 37 C
BMP10 [5] = molecular target: T3, BMP10; test: SPR; 37 C
BMP9 [6] = molecular target: T5, BMP9 (UniProt Q9UK05 320-429); test: SPR; 37 C
T5 chain: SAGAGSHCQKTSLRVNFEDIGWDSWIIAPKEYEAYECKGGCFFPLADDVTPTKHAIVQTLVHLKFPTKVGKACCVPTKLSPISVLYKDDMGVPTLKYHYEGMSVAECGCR

GDF11 [7] = molecular target: T4, GDF11; test: SPR; 37 C
BMP9 [8] = molecular target: T5, BMP9; test: SPR; 37 C; transient
activin A [9] = molecular target: T1, activin A; test: SPR; 37 C; transient
Activin = test: Biacore
GDF11 [10] = molecular target: T4, GDF11; test: Biacore

Kd (activin A [1]): 0.327 nM | Kd (activin B): 0.0073 nM | Kd (GDF8): 1.18 nM | Kd (BMP10 [2]): 0.0325 nM | Kd (GDF11 [3]): 1.41 nM
B1: ActRIIB(F82I-N83R)-G1Fc (Fc fusion)
chain: GRGEAETRECIYYNANWELERTNQSGLERCEGEQDKRLHCYASWRNSSGTIELVKKGCWLDDIRCYDRQECVATEENPQVYFCCCEGNFCNERFTHLPEAGGPEVTYEPPPTAPTG[gap - human IgG1 Fc and a few adjoining residues]
modifications: Homodimeric Fc fusion; one copy of the chain given

Kd (activin A [1]): 0.2 nM | Kd (activin B): 0.0109 nM | Kd (GDF8): 1.46 nM | Kd (BMP10 [2]): 0.0309 nM | Kd (GDF11 [3]): 0.864 nM
B2: ActRIIB(F82T-N83R)-G1Fc (Fc fusion)
chain: GRGEAETRECIYYNANWELERTNQSGLERCEGEQDKRLHCYASWRNSSGTIELVKKGCWLDDTRCYDRQECVATEENPQVYFCCCEGNFCNERFTHLPEAGGPEVTYEPPPTAPTG[gap - human IgG1 Fc and a few adjoining residues]
modifications: Homodimeric Fc fusion; one copy of the chain given

Kd (activin A [4]): 0.3 nM | Kd (BMP10 [5]): 0.12 nM | Kd (BMP9 [6]): 0.76 nM | Kd (GDF11 [7]): 0.037 nM | Kd (BMP9 [8]): 10.3 nM | Kd (activin A [9]): 9.19 nM | Kd (activin B): 0.0169 nM | Kd (GDF8): 0.151 nM | Kd (BMP10 [2]): 0.124 nM | Kd (GDF11 [3]): 0.0285 nM
B3: ActRIIB(L79H)-G1Fc (Fc fusion)
chain: GRGEAETRECIYYNANWELERTNQSGLERCEGEQDKRLHCYASWRNSSGTIELVKKGCWHDDFNCYDRQECVATEENPQVYFCCCEGNFCNERFTHLPEAGGPEVTYEPPPTAPTG[gap - human IgG1 Fc and a few adjoining residues]
modifications: Homodimeric Fc fusion; one copy of the chain given

Kd (activin A [1]): 0.513 nM | Kd (activin B): 0.0085 nM | Kd (BMP10 [2]): 0.0119 nM
B4: ActRIIB(F82K-N83R)-G1Fc (Fc fusion)
chain: GRGEAETRECIYYNANWELERTNQSGLERCEGEQDKRLHCYASWRNSSGTIELVKKGCWLDDKRCYDRQECVATEENPQVYFCCCEGNFCNERFTHLPEAGGPEVTYEPPPTAPTG[gap - human IgG1 Fc and a few adjoining residues]
modifications: Homodimeric Fc fusion; one copy of the chain given

Kd (activin A [4]): 0.58 nM | Kd (BMP10 [5]): 0.11 nM | Kd (BMP9 [6]): 0.22 nM | Kd (GDF11 [7]): 0.064 nM | Kd (activin A [9]): 3.38 nM | Kd (activin B): 0.0158 nM | Kd (GDF8): 0.328 nM | Kd (BMP10 [2]): 0.117 nM | Kd (GDF11 [3]): 0.0861 nM
B5: ActRIIB(L79H-F82I)-G1Fc (Fc fusion)
chain: GRGEAETRECIYYNANWELERTNQSGLERCEGEQDKRLHCYASWRNSSGTIELVKKGCWHDDINCYDRQECVATEENPQVYFCCCEGNFCNERFTHLPEAGGPEVTYEPPPTAPTG[gap - human IgG1 Fc and a few adjoining residues]
modifications: Homodimeric Fc fusion; one copy of the chain given

Kd (activin A [9]): 11.7 nM | Kd (activin B): 0.0196 nM | Kd (GDF8): 4.02 nM | Kd (BMP10 [2]): 0.0858 nM | Kd (GDF11 [3]): 1.65 nM
B6: ActRIIB(L79H-F82K)-G1Fc (Fc fusion)
chain: GRGEAETRECIYYNANWELERTNQSGLERCEGEQDKRLHCYASWRNSSGTIELVKKGCWHDDKNCYDRQECVATEENPQVYFCCCEGNFCNERFTHLPEAGGPEVTYEPPPTAPTG[gap - human IgG1 Fc and a few adjoining residues]

Kd (Activin): 0.005 nM
B7: ActRIIa (Fc fusion)
chain: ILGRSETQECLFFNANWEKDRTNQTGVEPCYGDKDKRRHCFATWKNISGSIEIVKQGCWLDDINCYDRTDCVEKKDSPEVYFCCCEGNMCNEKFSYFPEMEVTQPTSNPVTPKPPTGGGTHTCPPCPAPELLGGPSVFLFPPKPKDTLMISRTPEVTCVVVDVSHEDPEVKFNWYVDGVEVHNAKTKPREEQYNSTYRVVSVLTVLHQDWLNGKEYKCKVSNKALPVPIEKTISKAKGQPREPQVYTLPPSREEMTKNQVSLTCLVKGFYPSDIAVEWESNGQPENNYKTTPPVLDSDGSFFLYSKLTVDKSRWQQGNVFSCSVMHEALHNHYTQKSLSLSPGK
modifications: Disulfide-bonded homodimer of this chain; glycosylated CHO product

Kd (GDF11 [10]): 9.96 nM
B8: ActRIIA-hFc (Fc fusion)
chain: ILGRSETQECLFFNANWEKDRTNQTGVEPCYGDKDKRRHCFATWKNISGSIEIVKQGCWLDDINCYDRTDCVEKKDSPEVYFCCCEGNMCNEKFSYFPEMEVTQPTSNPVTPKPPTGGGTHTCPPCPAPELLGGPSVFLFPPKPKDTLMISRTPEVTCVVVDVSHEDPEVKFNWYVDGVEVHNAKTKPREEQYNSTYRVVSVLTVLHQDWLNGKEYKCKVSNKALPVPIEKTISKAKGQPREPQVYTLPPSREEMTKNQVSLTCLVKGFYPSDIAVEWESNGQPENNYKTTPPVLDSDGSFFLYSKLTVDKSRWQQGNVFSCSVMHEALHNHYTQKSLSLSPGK
modifications: Disulfide-bonded homodimer of this chain; glycosylated CHO product
